Key:
Settings in all cases: remark: other sources report otherwise
[1] = molecular target: A244 gp120 (no modifications) (HIV-1); experiment: SPR titration, binding to CH01-04_RUA1; A244 gDneg at [10] to [100], unit inferred
[2] = molecular target: A244 gp120 (no modifications) (HIV-1); experiment: SPR titration, binding to CH01-04_RUA1; A244 gDneg at [10], [25], [50], [75], [100], unit inferred; constant labelled ka1
[3] = molecular target: A244 gp120 (no modifications) (HIV-1); experiment: SPR titration, binding to CH01-04_RUA2; A244 gDneg at [10] to [100], unit inferred
[4] = molecular target: A244 gp120 (no modifications) (HIV-1); experiment: SPR titration, binding to CH01-04_RUA2; A244 gDneg at [10] to [100], unit inferred; constant labelled kd1
[5] = molecular target: A244 gp120 (no modifications) (HIV-1); experiment: SPR titration, binding to CH01-04_RUA2; A244 gDneg at [10], [25], [50], [75], [100], unit inferred; constant labelled ka1

B1: CH01_RUA1 (antibody)
chain 1: EVQLVESGGGVVRPGGSLRLSCAASGFTFDDYGMSWVRQAPGKGLEWVSGINWNGGSTGYADSVKGRFTISRDNAKNSLYLQMNSLRAEDTALYYCARGTDYTIDDQGIRYQGSGTFWYFDLWGRGTLVTVSS
chain 2: [letters of about 100 residues not shown]
**Q.** Which Kd [1] does the source give for B1 here?
**A.** Its Kd is 11.4 µM.

**Q.** And the koff [1]?
**A.** The koff was 0.018 s⁻¹.

**Q.** And the kon [2]?
**A.** Its kon is 1580 M⁻¹ s⁻¹.

B2: CH01_RUA2 (antibody)
chain 1: EVQLVESGGGVVRPGGSLRLSCAASGFTFDDYGMSWVRQAPGKGLEWVSGINWNGGSTGYADSVKGRFTISRDNAKNSLYLQMNSLRAEDTALYYCARGTDYTIDDQGILYQGSGTFWYFDLWGRGTLVTVSS
chain 2: [letters of about 100 residues not shown]
**Q.** B2 was tested. Which Kd [3] did it give?
**A.** The Kd was 2.82 µM.

**Q.** What about the koff [4] of the same binder?
**A.** The koff was 0.01 s⁻¹.

**Q.** And the kon [5]?
**A.** The kon was 3550 M⁻¹ s⁻¹.

From US10040826
